# Out of some 110,000 compounds screened, about 230 (0.21%) showed an effect of 50% or more. This is one part of the list.
# Target: DPAP1 (Plasmodium falciparum, UniProt Q8IIJ9)
# Test: primary screen, percent inhibition; read by cleavage of a fluorogenic dipeptide substrate; higher = more effect of the substance
# Parameters: species or system P. falciparum D10 trophozoite lysates; single well
# 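Note: 30 min substrate incubation versus DMSO and 10 µM JCP410 controls.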
# DPAP1, sequence (Q8IIJ9 whole entry, looked up): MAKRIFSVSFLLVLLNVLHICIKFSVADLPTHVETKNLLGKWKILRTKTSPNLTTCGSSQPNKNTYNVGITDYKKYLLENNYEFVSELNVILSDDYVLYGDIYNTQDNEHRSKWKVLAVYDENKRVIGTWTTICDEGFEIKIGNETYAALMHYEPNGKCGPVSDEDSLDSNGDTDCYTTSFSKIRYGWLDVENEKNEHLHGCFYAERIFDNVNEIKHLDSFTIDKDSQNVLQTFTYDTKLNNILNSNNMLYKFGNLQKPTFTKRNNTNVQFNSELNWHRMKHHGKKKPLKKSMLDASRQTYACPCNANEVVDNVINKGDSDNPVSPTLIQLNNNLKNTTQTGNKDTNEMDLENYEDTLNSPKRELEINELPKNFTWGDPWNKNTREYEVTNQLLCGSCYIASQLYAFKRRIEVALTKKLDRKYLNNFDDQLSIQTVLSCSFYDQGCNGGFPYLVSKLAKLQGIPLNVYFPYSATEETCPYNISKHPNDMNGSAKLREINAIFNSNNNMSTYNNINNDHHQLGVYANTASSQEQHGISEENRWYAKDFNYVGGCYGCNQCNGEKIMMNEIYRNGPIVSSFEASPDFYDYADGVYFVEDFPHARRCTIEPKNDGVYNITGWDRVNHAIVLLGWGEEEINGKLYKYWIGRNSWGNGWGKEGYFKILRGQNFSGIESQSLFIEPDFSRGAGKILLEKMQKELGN
row,SMILES,% Inhibition @ 10 uM
1,CCCc1[nH]nc2c1C(c1ccc(O)c(O)c1)C(C#N)=C(N)O2 (centres unmarked),0.751%
2,COc1ccc(S(=O)(=O)N2CCC(C(=O)O)CC2)cc1,-3.74%
3,O=C(c1ccco1)N1CCN(C(=O)c2c(F)cccc2F)CC1,2.22%
4,CCCN(CCO)Cc1ccc(Br)cc1,-0.0494%
5,O=[N+]([O-])c1ccccc1OCCCN1CCCCC1,1.62%
6,COC(=O)/C(C#N)=C/c1c(Oc2ccc(C)cc2C)nc2ccccn2c1=O,2%
7,O=C(c1cc(Cl)cc(Cl)c1)N1CCN(C(=O)c2cc(Cl)cc(Cl)c2)CC1,2.6%
8,Cc1cc(C)n2nc[n+](CC(=O)c3ccccc3)c2n1,-4.65%
9,CCc1ccc(OCC(=O)Nc2ccc(S(=O)(=O)N3CCOCC3)cc2)c(Br)c1,-2.74%
10,Cc1cc(SCC(=O)NCc2ccccc2)n2nc(C)c(-c3ccc(Cl)cc3)c2n1,1.72%
11,COc1ccc(N2C(=O)CC(N(C)CCc3ccc(OC)c(OC)c3)C2=O)cc1 (centres unmarked),-4.7%
12,CCCCCCOC(=O)Nc1nnc(Cc2ccccc2)s1,-0.546%
13,CCC(Sc1nc(NC2CCCCC2)c2ccccc2n1)C(=O)NCCCOC (centres unmarked),-4.01%
14,C1=CCC(CN2CCN(C/C=C/c3ccccc3)CC2)CC1 (centres unmarked),-2.02%
15,O=C(NCc1ccco1)c1cnc2ccc(S(=O)(=O)N3CCOCC3)cc2c1O,-1.99%
16,CCOc1ccc(CCNC(=O)C(CC)n2nc(C)n3c(cc4sccc43)c2=O)cc1OCC (centres unmarked),1.8%
17,Cc1nc2cc(NC(=O)N3CC4(C)CC3CC(C)(C)C4)ccc2n1C (centres unmarked),-2.17%
18,Fc1ccccc1CCNC1CN2CCC1CC2 (centres unmarked),-0.0953%
19,COc1cccc(N(CC(=O)Nc2ccc(C)c(C)c2)S(C)(=O)=O)c1,-1.43%
20,CC(=O)Nn1nc2cc3nn[nH]c3cc2n1,-1.29%
21,Cc1ccc(Nc2nc(-c3sc(C)nc3C)cs2)nc1,-1.69%
22,Cc1ccc(-c2nc(CS(=O)(=O)CC(=O)NCc3ccccc3)c(C)o2)cc1,-9.55%
23,COc1ccc(S(=O)(=O)NCCOCC(F)(F)F)cc1C,-6.53%
24,COc1ccc(-n2c(C)cc(C)c(C(C)=O)c2=O)cc1,-11.5%
25,C1=C(c2ccccc2)C(N2CCOCC2)Oc2ccccc21 (centres unmarked),1.78%

row,SMILES,% Inhibition @ 10 uM
1,CCOc1cc(/C=C2/SC(=O)N(CC(=O)N3CCOCC3)C2=O)ccc1OC(C)C,8.58%
2,CC12CN3CC(c4ccccc4)(CN(C1)C3c1c[nH]c3ccccc13)C2=O (centres unmarked),1.25%
3,Brc1ccc(-c2cc(-c3ccccc3)nc(N3CCNCC3)n2)cc1,-0.239%
4,Cc1ccccc1OCc1nc(C#N)c(NCc2ccc3c(c2)OCO3)o1,-1.38%
5,Cc1nc(-c2ccccc2)nc2oc3c(O)ncnc3c12,3.8%
6,COc1ccccc1CN1C(=O)c2ccncc2C1=O,-1.08%
7,CC(Nc1nc2c(S(=O)(=O)c3ccc(Cl)cc3)nnn2c2ccccc12)c1ccccc1 (centres unmarked),-6.68%
8,COc1ccccc1CNC(=O)c1cccc2ccccc12,-3.03%
9,CCOC(=O)N1CCN(Cc2cccc(Cl)c2Cl)CC1,-0.0494%
10,CN1CCN(CCCNC(=O)C2C3C=CC4(CN(Cc5ccccc5Cl)C(=O)C24)O3)CC1 (centres unmarked),3.33%
11,NC(=O)c1nn2c(c1Br)NC(c1ccccc1)CC2C(F)(F)F (centres unmarked),7.2%
12,N#Cc1c2n(c3c(=O)n(Cc4ccc(Cl)cc4)cnc13)CCCCC2,0.986%
13,COc1ccc(-c2[nH]nc3c2C(=O)CC(C)(C)C3)cc1,0.275%
14,Cc1cccc2c1-c1sc(C(=O)NCCc3ccc(S(N)(=O)=O)cc3)cc1CO2,0.291%
15,CC(C)COc1ccc(/C(=N\O)c2ccccc2)cc1,1.33%
16,CCCCc1[nH]nc2c1/C(=N\OCC)CC(C)(C)C2,0.878%
17,CCc1nn(C(CC)C(=O)NCc2cccc(OC)c2)c(=O)c2cc3oc(C)cc3n12 (centres unmarked),1.8%
18,O=C(Nc1nc(-c2ccccc2)cs1)c1cccc(Cl)c1,-2.32%
19,O=C(NC1CCCc2ccccc21)C1CCN(c2c(N3CCCC3)c(=O)c2=O)CC1 (centres unmarked),3.07%
20,COc1ccc(OC)c(CCNCc2c(C(=O)O)c(C)n(Cc3c(F)cccc3Cl)c2C)c1,-0.23%
21,Cc1scc(C(=O)c2csc(C)c2C)c1C,-8.59%
22,COc1ccccc1N1CCN(C(=O)CN(C2CCCCC2)S(=O)(=O)c2ccccc2)CC1,-12.7%
23,CC(C)C(C)(O)C#CCN1CCOCC1 (centres unmarked),2.13%
24,CC(CCc1ccccc1)NC(=O)C1CCN(c2nnc(N3CCCC3=O)s2)CC1 (centres unmarked),-4.68%
25,Fc1ccc(CN2CCN(c3ncccn3)CC2)cc1Br,2.23%
